# Reference: PMC4336329 (PLoS ONE, 2015)
# In all, about 310,000 compounds went through this assay and about 14,000 (4.5%) showed an effect of 50% or more. The effect is printed as a negative number. The list shows a part of the results.
# Target: human ether-à-go-go-related gene (hERG) potassium channel (human, UniProt Q12809)
# Assay: primary screen, population patch clamp on CHO cells stably expressing hERG
# 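Note: peak tail current of the secondary pulse compared with the same well before compound.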
# Chain of human ether-à-go-go-related gene (hERG) potassium channel (Q12809 whole entry, looked up): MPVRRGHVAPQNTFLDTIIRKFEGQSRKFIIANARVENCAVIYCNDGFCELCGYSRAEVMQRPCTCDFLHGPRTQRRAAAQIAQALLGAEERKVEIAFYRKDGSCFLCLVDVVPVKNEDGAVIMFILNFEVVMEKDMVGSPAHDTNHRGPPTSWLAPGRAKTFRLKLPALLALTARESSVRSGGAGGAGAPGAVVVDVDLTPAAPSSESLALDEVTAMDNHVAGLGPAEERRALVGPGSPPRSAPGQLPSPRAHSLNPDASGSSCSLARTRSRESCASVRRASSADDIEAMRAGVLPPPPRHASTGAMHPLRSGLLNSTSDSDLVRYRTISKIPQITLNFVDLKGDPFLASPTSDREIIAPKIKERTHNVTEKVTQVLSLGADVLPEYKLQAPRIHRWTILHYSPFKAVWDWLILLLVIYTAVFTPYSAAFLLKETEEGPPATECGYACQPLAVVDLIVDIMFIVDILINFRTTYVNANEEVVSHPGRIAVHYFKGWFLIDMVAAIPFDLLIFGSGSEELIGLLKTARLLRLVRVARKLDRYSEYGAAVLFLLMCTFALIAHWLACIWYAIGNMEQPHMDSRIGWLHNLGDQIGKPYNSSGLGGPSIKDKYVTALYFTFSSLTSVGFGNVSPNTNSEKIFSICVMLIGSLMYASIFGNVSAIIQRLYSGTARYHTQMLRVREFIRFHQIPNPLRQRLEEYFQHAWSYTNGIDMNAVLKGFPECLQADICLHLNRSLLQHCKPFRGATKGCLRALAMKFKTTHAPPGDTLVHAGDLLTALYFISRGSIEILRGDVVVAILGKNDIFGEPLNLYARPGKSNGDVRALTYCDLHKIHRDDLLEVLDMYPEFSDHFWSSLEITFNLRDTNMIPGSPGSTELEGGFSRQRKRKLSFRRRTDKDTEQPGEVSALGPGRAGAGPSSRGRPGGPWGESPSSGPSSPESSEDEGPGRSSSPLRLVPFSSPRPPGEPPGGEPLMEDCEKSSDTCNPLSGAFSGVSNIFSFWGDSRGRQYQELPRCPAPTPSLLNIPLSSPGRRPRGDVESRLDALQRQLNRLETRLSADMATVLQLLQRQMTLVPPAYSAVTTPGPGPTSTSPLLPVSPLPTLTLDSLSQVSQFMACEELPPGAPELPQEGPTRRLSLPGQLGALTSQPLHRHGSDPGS
row,SMILES,"hERG current change (%, negative = inhibition) at 10uM [%]"
1,Cc1ccc(C)c(S(=O)(=O)NC2CCS(=O)(=O)C2)c1 (stereo not shown),-12.1
2,COC(=O)[C@@H]1C[C@@]2(O)[C@H](O)[C@H](O)[C@H](O)C[C@H]2N1Cc1cc(OC)cc(OC)c1,13.1
3,O=C1c2oc3ccccc3c(=O)c2C(c2ccc(O)cc2)N1c1nccs1 (stereo not shown),9.09
4,CSc1nnc(N2C(=O)C(O)=C(C(=O)c3ccco3)C2c2ccccc2F)s1 (stereo not shown),5.74
5,COc1ccc2cc3c(N)nn(C(=O)C4CCC(C(C)(C)C)CC4)c3nc2c1 (stereo not shown),-6.56
6,COc1cccc(CNC(=O)CCC2CCCN(C(=O)CCn3cncn3)C2)c1 (stereo not shown),29.4
7,O=S(=O)(Nc1ccc(-n2cccc2)cc1)c1ccc(Cl)cc1Cl,10.5
8,O=C(OCC(=O)c1ccc([N+](=O)[O-])cc1)/C(=C/c1ccc(Cl)cc1)NC(=O)c1ccccc1,-63.3
9,COc1cc(-c2n[nH]c(=S)n2Cc2ccccc2)cc(OC)c1OC,6.36
10,COc1ccc(C2c3ccc(O)cc3Oc3ncn4nc(-c5cccnc5)nc4c32)cc1OC (stereo not shown),-56.9
11,COC(=O)c1cc(C(=O)Nc2nnc(CC(C)(C)C)s2)cc([N+](=O)[O-])c1,-2.08
12,C=C(C)C1Cc2c(C)nn(-c3nc(C)cc(C)n3)c2C1 (stereo not shown),11.5
13,Cc1ccc(OCC(=O)N2CCc3ccccc32)cc1,15.9
14,O=C(NCc1ccccn1)Nc1ccc(Cl)cc1,13.9
15,c1ccc(-c2nnc3n2NC(c2ccc4c(c2)OCO4)S3)cc1 (stereo not shown),11.1
16,Oc1c(Cl)cc(Cl)cc1CN1CCN(Cc2ccccc2)CC1,-12
17,CN(C)C(CNC(=O)c1cc2ccccc2oc1=O)c1ccccc1 (stereo not shown),-12.7
18,O=C1OC(Cc2ccccn2)C(=O)C1=C1SCCS1 (stereo not shown),8.1
19,O=C1C(=O)N(c2nccs2)C(c2ccccc2)/C1=C(\O)c1ccc2c(c1)OCCO2 (stereo not shown),8.03
20,CCC(=O)CC(c1ccc([N+](=O)[O-])cc1)c1c(O)c2ccccc2oc1=O (stereo not shown),4.98
21,O=C(c1cccc(C(F)(F)F)c1)C1CCCN(C(=O)c2cc(C3CC3)[nH]n2)C1 (stereo not shown),-38.9
22,CC(=O)Cc1nsc(NC(=O)c2ccc(F)cc2)n1,23.5

row,SMILES,"hERG current change (%, negative = inhibition) at 10uM [%]"
1,CCOc1cc(C)c(Cl)cc1S(=O)(=O)NCC1CCCO1 (stereo not shown),1.35
2,Cc1ccc(SC(=O)COc2ccccc2C)cc1,6.43
3,CN(CC(=O)OCC(=O)Nc1ccccc1)S(=O)(=O)c1ccc(Cl)cc1,-19.9
4,Cc1ccc(S(=O)(=O)c2c(COC(=O)c3ccccc3Cl)c(-c3ccccc3)nn2C)cc1,2.56
5,CCOc1cc(/C=N/n2c(COc3ccccc3)n[nH]c2=S)ccc1O,24.4
6,CN(C)/C=C1/N=C(c2ccccc2)OC1=O,-4.75
7,CNC(=O)c1cccn(Cc2cc(C(F)(F)F)cc(C(F)(F)F)c2)c1=O,4.19
8,O=C(COC(=O)c1nc(Cl)ccc1Cl)NCc1ccccc1,10.7
9,N#Cc1ccccc1NC(=O)COc1ccc2c(c1)OCO2,5
10,COc1ccc(/C=N/NC(=O)CCCOc2ccc(Cl)cc2Cl)cc1[N+](=O)[O-],-14.8
11,O=C(CCCN1C(=O)/C(=C/c2ccccc2Cl)SC1=S)NNC(=O)c1ccccc1,-7.83
12,Cc1cccc(NC(=S)NC(=O)c2ccc(-c3ccccc3)cc2)n1,40.1
13,CS(=O)(=O)N1CCN(C(=O)c2cc(-c3ccncc3)nc3ccc(Cl)cc23)CC1,-12.8
14,CC(=O)c1ccccc1NC(=O)COc1ccc(N(C)S(=O)(=O)c2ccc(C)c(C)c2)cc1,-20
15,COc1ccc(CCNC(=O)Cn2nnc3ccccc3c2=O)cc1,9.17
16,CC(C)C(=O)Nc1ccc(C(=O)Nc2nnc(C(C)C)s2)cc1,13.2
17,NC(=O)c1cc(S(=O)(=O)NCc2ccc(Br)cc2)cs1,3.35
18,Cc1ccccc1OCC(=O)NC1CCCCCCC1,-17.6
19,COc1ccc(/C=N/NC(=O)Cc2csc(Nc3cccc(C(F)(F)F)c3)n2)cc1C,10.7
20,O=S(=O)(c1ccccc1)n1ccc(-c2cnc(-c3ccccc3)s2)n1,8.54
21,COc1cc(/C=C2/C(=N)N3C(=NC2=O)SN=C3S(=O)(=O)C(C)C)ccc1OC(=O)c1ccco1,10.9
22,COc1ccc(-c2noc(CCC(=O)N(C)c3cccc(C)c3)n2)cc1,2.44

row,SMILES,"hERG current change (%, negative = inhibition) at 10uM [%]"
1,COc1ccc(Cn2c(=O)[nH]c3cc(C(=O)N4CCN(c5ccccn5)CC4)ccc3c2=O)cc1,4.92
2,COCC(=O)N/N=C(\C)CC(=O)NCc1ccco1,21.1
3,O=C(O)c1ccc(-c2nnn(Cc3ccccc3F)n2)cc1,58.7
4,Nc1c(C(=O)OCC2CCCO2)c2nc3ccccc3nc2n1C1CCCC1 (stereo not shown),-22
5,CN(CCOc1ccc(Cl)c(Cl)c1)Cc1ccccc1.O=C(O)C(=O)O,23.1
6,O=C(Nc1ccc(C(=O)N2CCCC2)cc1)c1ccc(F)cc1Cl,0.232
7,CC(C)CC(=O)Nc1cccc(C(=O)Nc2ccccc2C(=O)O)c1,-0.202
8,CC(C(=O)c1ccccc1)N1C(=O)c2ccccc2C1=O (stereo not shown),10
9,CC(=O)c1cccc(NC(=O)C2=CC(c3ccc4c(c3)OCO4)=NS(=O)(=O)N2C)c1,-8.8
10,Cc1ccc(NC(=O)CN(C)C(=O)c2ccc(S(=O)(=O)N(C)c3ccccc3)cc2)cc1,11.2
11,Cc1csc(OCc2ccc(C#N)cc2)n1,-22.9
12,CCOc1cc(C(=O)NCc2ccco2)cc(OCC)c1OCC,-6.81
13,COc1ccc(-c2cc(C(=O)OCC(=O)c3cccc([N+](=O)[O-])c3)c3cc(C)ccc3n2)cc1,-2.3
14,COC(=O)c1ccc(CN2CCN(Cc3ccc(F)cc3)C(CCO)C2)cc1 (stereo not shown),10.1
15,O=C(COc1ccc(Br)cc1)Nc1ccc(N2CCOCC2)cc1N1CCOCC1,-7.56
16,COc1cc2[nH]c(C(=O)N(C)C3CCS(=O)(=O)C3)cc2c(OC)c1OC (stereo not shown),13.6
17,Cc1ccc(C)c2[nH]c(=O)c(CN(CC3CCCO3)C(=O)NC3CCCCC3)cc12 (stereo not shown),-2.81
18,Cc1ccc(S(=O)(=O)N2CCOCC2)cc1C(=O)NC1CCCC(C)C1C (stereo not shown),-25.7
19,O=C(COC(=O)C1CCN(c2ccc(C(F)(F)F)cn2)CC1)NCc1ccc(Cl)cc1Cl,-10.1
20,COc1cccc(-n2c(SCC(=O)Nc3cc(C)on3)nc3ccccc3c2=O)c1,-4.23
21,CCN(C(=O)Cn1cc(C(F)(F)F)ccc1=O)c1c(N)n(Cc2ccccc2)c(=O)[nH]c1=O,10.4
22,COc1cc(C)c(/C=C(\C#N)C(=O)Nc2cccc(C)c2)cc1C(C)C,0.0709

row,SMILES,"hERG current change (%, negative = inhibition) at 10uM [%]"
1,CN(CCCNC(=O)CCC(=O)N1CCOc2ccc(Cl)cc21)Cc1ccccc1,-64.1
2,CCC(=O)c1ccc(Oc2ccc(C(=O)c3ccc(C)cc3)cc2[N+](=O)[O-])cc1,10.1
3,Cc1nc(CCNC(=O)Cc2ccccc2)cs1,6.52
4,COc1ccc(OC)c(C(=O)N2CCCC(Nc3ccc(F)cc3)C2)c1 (stereo not shown),-8.55
5,CCN1CCN(CCCNC(=O)c2cc3cc4ccc(OC)cc4nc3o2)CC1,-17.1
6,Cc1cccc(N2CCN(C(=O)Cc3cn(C)c4ccccc34)CC2)c1C,-7.32
7,Br.O/C(=C\Sc1nnc(Cc2ccccc2)o1)c1ccc(Br)cc1,11.8
8,CN1C(=O)C(=Cc2ccc(Sc3ccccc3)o2)C(=O)N(C)C1=S,20.3
9,CS(=O)(=O)c1ccc(C(=O)Nc2ccc(N3CCCCC3)cc2)c(Cl)c1,34.1
10,CC(C)(C)NS(=O)(=O)c1ccc(NC(=O)Cc2ccccc2[N+](=O)[O-])cc1,1.66
11,Cc1csc(SC(C)C(=O)NCc2ccc3c(c2)OCO3)n1 (stereo not shown),-2.04
12,Cc1cc(S(=O)(=O)Nc2ccc(N3CCOCC3)cc2)ccc1Br,7.38
13,CCOc1ccc(-n2c(SCC(=O)NC)nnc2-c2ccco2)cc1,-27.5
14,COc1ccc2c(c1)c(=O)oc1c(C)c(OCc3cc(C(=O)O)oc3C)ccc12,22.5
15,O=S(=O)(NCCCN1CCOCC1)c1ccc2ccccc2c1,0.325
16,COC(=O)c1cc(S(=O)(=O)NCC2CCN(Cc3cc(C)ccc3C)CC2)c[nH]1,-11
17,O=C1CCCCC1C(=O)c1ccccc1 (stereo not shown),17.3
18,Cl.Oc1ccc(COCc2ccccc2)c2cccnc12,-6.99
19,CCCOC(=S)N/C(=N\S(=O)(=O)c1ccccc1)c1ccccc1,10.7
